# In the supplement of paper PMC12217912:
# The other results are listed elsewhere or left out. Sequences were assembled here from the parent chain. Values near 0.05 are background.
# B1: TEV protease; numbered along this chain (parent)
# chain: MGESLFKGPRDYNPISSSICHLTNESDGHTTSLYGIGFGPFIITNKHLFRRNNGTLVVQSLHGVFKVKDTTTLQQHLVDGRDMIIIRMPKDFPPFPQKLKFREPQREERICLVTTNFQTKSMSSMVSDTSCTFPSGDGIFWKHWIQTKDGQCGSPLVSTRDGFIVGIHSASNFTNTNNYFTSVPKNFMELLTNQEAQQWVSGWRLNADSVLWGGHKVFMVKPEEPFQPVKEATQL
# Variants of: B1
# Experiment: raw area under fraction-flipped curve 0-4 h after induction (AUC4h, not background-subtracted), DNA-recorder readout of cleavage of the substrate (dimensionless); higher = more cleavage of the substrate by the protease variant
# Details: temperature: 34 °C; time window: 0-4 h after rhamnose induction
# 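Note: Bxb1 expression induced with 0.2% (w/v) L-rhamnose at OD600 near 0.5, cultures sampled hourly, flipped fraction per protease–substrate barcode pair counted by paired-end Illumina sequencing.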
Variant,area with substrate ENLYFAS,area with substrate ENLYFCS,area with substrate ENLYFDS,area with substrate ENLYFES,area with substrate ENLYFFS,area with substrate ENLYFHS,area with substrate ENLYFIS,area with substrate ENLYFKS,area with substrate ENLYFMS,area with substrate ENLYFNS,area with substrate ENLYFPS,area with substrate ENLYFRS,area with substrate ENLYFSS,area with substrate ENLYFTS,area with substrate ENLYFVS,area with substrate ENLYFYS,area with substrate ENLYFGS,area with substrate ENLYFLS,area with substrate ENLYFWS
N175K,0.0564,0.0788,0.0674,0.0653,0.0722,0.0278,0.0518,0.0753,0.0639,0.0686,0.0576,0.0601,0.0535,0.0655,0.0645,0.0641,–,–,–
T192H,0.0807,0.0602,0.0561,0.0656,0.0635,0.0633,0.0473,0.0601,0.0468,–,0.0594,0.0645,0.0563,0.0583,0.0863,–,0.0633,0.0694,0.0616
T192Q,0.0572,0.0557,–,0.072,0.0602,–,0.0565,0.0318,0.0651,0.068,0.0658,0.0622,0.0656,0.0577,0.0551,0.0607,0.0696,–,0.0614
T192E,0.0693,0.0562,0.0561,–,0.064,0.0584,0.0666,–,0.0763,0.0676,–,0.0475,–,0.0514,–,0.0637,0.053,–,0.056
T192G,0.0437,0.0867,0.0546,0.0694,0.061,–,0.0543,–,0.0788,–,–,0.076,–,0.0603,0.0807,0.0537,–,–,0.0524
Q197W,0.064,0.0586,0.054,–,0.0667,–,0.0532,0.0623,0.0569,0.0458,0.0648,–,0.0445,0.0528,0.0633,–,0.062,–,0.0534
V200A,0.0611,–,0.059,–,–,–,–,–,–,–,0.0603,–,–,0.0702,–,0.051,–,–,–
V200H,0.0544,0.0601,0.0713,0.065,0.0699,0.0069,0.0613,0.0766,0.0389,0.0436,0.0634,0.0524,0.0588,0.0482,0.0087,–,0.0577,0.0633,0.0537
H168Q,0.0782,0.039,–,0.0545,0.0688,0.0549,0.0538,0.0767,0.0541,0.0614,0.0631,0.0553,0.0535,0.0592,0.0624,–,–,0.0554,0.0397
H168L,0.0935,0.0446,0.0657,0.056,0.0654,0.0589,0.0601,–,0.0507,–,0.0687,–,–,0.0458,0.0455,0.0545,0.0599,–,–
H168Y,0.068,0.0472,0.0633,–,0.0605,–,0.0585,0.0648,0.0557,0.0619,0.0536,0.0504,0.0585,0.0612,–,0.0605,0.0577,0.0416,–
T174D,0.0946,0.0693,–,0.0651,0.0661,0.0575,0.0567,0.0578,0.08,–,0.0635,0.0683,–,0.0772,0.0319,0.0614,0.0642,0.0571,0.0701
Q198K,0.0102,–,0.0551,0.0705,0.0622,0.0393,0.053,0.0635,0.0667,–,0.087,–,0.0907,–,–,0.0552,0.0687,–,0.0498
P184G,0.0491,–,0.0587,0.056,0.0709,–,0.0556,0.0526,0.0596,–,0.0567,–,0.0949,0.0545,0.0475,0.0929,0.0597,0.0672,–
P184N,0.0277,0.0362,0.05,0.0557,0.0508,0.062,0.0566,0.0579,0.0595,0.0635,–,0.049,0.0462,0.0609,–,–,0.0588,0.0591,0.0868
P184I,0.0504,–,0.0413,0.0617,0.0706,0.06,0.0545,0.0555,0.0557,0.0572,0.0646,0.057,0.0513,0.0629,0.0327,0.0466,0.0635,0.0613,0.043
P184S,0.0628,0.0618,0.0549,0.0618,0.0662,0.0611,0.0518,0.0673,0.0605,–,0.0728,0.0535,0.0601,0.054,–,0.0537,0.0651,–,0.0529
P184W,0.0418,–,0.0465,0.056,–,0.0438,0.049,0.059,0.0678,0.055,0.0611,0.0529,–,0.0762,–,0.0757,–,–,0.0577
T176N,0.0681,–,0.0625,–,–,0.0595,0.0499,–,0.0598,0.0554,0.0588,0.0518,0.0595,0.0596,–,–,0.0653,–,0.0548
T176I,0.0593,0.0501,–,0.067,0.0571,0.0607,0.0657,0.0404,0.0579,0.067,0.049,0.0533,0.0582,0.0652,0.0555,–,0.052,0.0683,–
T176M,0.0678,0.0579,–,0.0431,0.0683,0.0467,0.0525,0.0493,0.0586,0.0671,–,–,0.085,0.0661,0.047,0.0496,–,–,0.053
T176F,0.0651,–,0.0511,0.062,0.061,–,0.0453,–,0.0492,–,–,–,–,–,0.0691,–,–,–,–
T176C,0.0594,0.0536,0.053,0.0599,0.0772,0.0586,–,–,–,–,0.0749,0.0564,0.0606,0.0693,–,0.0504,–,–,0.0535
T176S,0.0609,0.0658,0.0554,0.0547,0.0791,0.064,0.0582,–,0.0648,–,0.063,0.0636,0.0315,0.0575,–,–,0.0583,–,0.0619
N177E,0.0574,0.0567,0.0693,0.0668,0.0637,0.0566,0.0583,0.0627,0.0499,0.0609,0.06,0.0587,0.0602,–,0.0765,0.0554,–,–,0.0586
